These results are taken from PMC5892938.

This is one part of the list. At the low end of the ranking the order means little.

The assay addresses GST-SBP-SLBP (stem-loop binding protein) (UniProt Q14493). The assay is described as follows: targeted RNA Bind-n-Seq.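 Note: DESeq read counts versus GST-SBP nonspecific binding control pulldown.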 Particulars: RBNS binding buffer: 25 mM Tris pH 7.5, 150 mM KCl, 3 mM MgCl2, 0.1% Tween, 0.5 mg/mL BSA, 1 mM DTT; 27 nM protein, 750 pM RNA pool; temperature not stated; high values mean tight binding.
Take “GGUCACGUCUCAAUCAACUCAAUUUCCAGGGAAACCCCUGGCUAAUUCAACAGCUCGCAGUCAAG”: the binding signal (log2 fold change) came out at 0.267.
Turning to “GGUCACGUCUCAAUCAACUCUAUUUCAGGAGUUUUCUCCUGCUAAUUCAACAGCUCGCAGUCAAG”, the binding signal (log2 fold change) was found to be 0.122.
Regarding “GGUCACGUCUCAAUCAACUCCAUAGAGGGGGGGAAAACCCCUUUGCCCUCACAUUCAACAGCUCGCAGUCAAG”, the binding signal (log2 fold change) turned out to be 0.0945.
Turning to “GGUCACGUCUCAAUCAACUCAUUUUCAGGAGUUUCCUCCUGUUUAGUCAACAGCUCGCAGUCAAG”, the binding signal (log2 fold change) turned out to be 0.152.
In the case of “GGUCACGUCUCAAUCAACUCAAUUUCCAGGGAAAUCCCUGGUAUUCUCAACAGCUCGCAGUCAAG”, the binding signal (log2 fold change) is 0.000395.
The result for “GGUCACGUCUCAAUCAACUCUAAAGAGGGGGGGAAAACCCCUUUACCCUCCACGUCAACAGCUCGCAGUCAAG” reads -0.4.
The value for “GGUCACGUCUCAAUCAACUCUUCCUCAGGAGUUUUCUCCUGCAAUUUCAACAGCUCGCAGUCAAG” was 0.0289; that for “GGUCACGUCUCAAUCAACUCUUUCCCCAGGGAAAACCCUGGCAUUUUCAACAGCUCGCAGUCAAG” was 0.0252; that for “GGUCACGUCUCAAUCAACUCACAAGAGGGGGGGAAAACCCCUUUACCCUCACUUUCAACAGCUCGCAGUCAAG” was 0.0526.
The value for “GGUCACGUCUCAAUCAACUCACAAGAGGGGGGGAAAACCCCUUUACCCUCCCAUUCAACAGCUCGCAGUCAAG” was 0.0207; that for “GGUCACGUCUCAAUCAACUCUUUUUCCAGGGAAAACCCUGGUAAUUUCAACAGCUCGCAGUCAAG” was -0.111; that for “GGUCACGUCUCAAUCAACUCAAUCCCCAGGGAAAACCCUGGUAAACUCAACAGCUCGCAGUCAAG” was -0.148.
As to “GGUCACGUCUCAAUCAACUCAAUCCCAGGAGUUUCCUCCUGCAAUUUCAACAGCUCGCAGUCAAG”, the binding signal (log2 fold change) was 0.0931.
Consider “GGUCACGUCUCAAUCAACUCUUCGUCAGGAGUUUCCUCCUGUAAUCUCAACAGCUCGCAGUCAAG”, for which the binding signal (log2 fold change) is -0.0718.
The result for “GGUCACGUCUCAAUCAACUCAAUCUCCAGGGAAACCCCUGGUAUAUUCAACAGCUCGCAGUCAAG” reads -0.0637.
For the sequence “GGUCACGUCUCAAUCAACUCUCAAGAGGGGGGGAAAACCCCUUUACCCUCAAAAUCAACAGCUCGCAGUCAAG”, the binding signal (log2 fold change) is -0.259.
The value for “GGUCACGUCUCAAUCAACUCUUCUCCAGGAGUUUCCUCCUGCAUUCUCAACAGCUCGCAGUCAAG” was 0.163.
The value for “GGUCACGUCUCAAUCAACUCAAUUCCAGGAGUUUACUCCUGUAUUUUCAACAGCUCGCAGUCAAG” was 0.123.
For the sequence “GGUCACGUCUCAAUCAACUCAAUCUCAGGAGUUUACUCCUGUUUACUCAACAGCUCGCAGUCAAG”, the binding signal (log2 fold change) worked out at 0.227.
For “GGUCACGUCUCAAUCAACUCUUUCCCAGGAGUUUCCUCCUGUAUAUUCAACAGCUCGCAGUCAAG”, the binding signal (log2 fold change) was -0.0755.
For the sequence “GGUCACGUCUCAAUCAACUCAUUCCCAGGAGUUUUCUCCUGCUAUCUCAACAGCUCGCAGUCAAG”, the binding signal (log2 fold change) is -0.0191.
For “GGUCACGUCUCAAUCAACUCAGUCUCCAGGGAAAACCCUGGCAAAUUCAACAGCUCGCAGUCAAG”, the binding signal (log2 fold change) was found to be 0.13.
Take “GGUCACGUCUCAAUCAACUCUUCUUCAGGAGUUUCCUCCUGCAAUUUCAACAGCUCGCAGUCAAG”: the binding signal (log2 fold change) is 0.135.
Take “GGUCACGUCUCAAUCAACUCAAGUCCAGGAGUUUACUCCUGCUAUUUCAACAGCUCGCAGUCAAG”: the binding signal (log2 fold change) was -0.168.
The result for “GGUCACGUCUCAAUCAACUCUAUCCCCAGGGAAACCCCUGGUAUAUUCAACAGCUCGCAGUCAAG” reads 0.0455.
Consider “GGUCACGUCUCAAUCAACUCAUUUCCAGGAGUUUCCUCCUGCAUACUCAACAGCUCGCAGUCAAG”, for which the binding signal (log2 fold change) is 0.134.
Consider “GGUCACGUCUCAAUCAACUCAUCCUCCAGGGAAACCCCUGGCUUAUUCAACAGCUCGCAGUCAAG”, for which the binding signal (log2 fold change) amounted to 0.13.
The value for “GGUCACGUCUCAAUCAACUCAACUCCCAGGGAAACCCCUGGUUUUUUCAACAGCUCGCAGUCAAG” was -0.262.
The value for “GGUCACGUCUCAAUCAACUCAUCUCCCAGGGAAAUCCCUGGCAAUCUCAACAGCUCGCAGUCAAG” was 0.0148; that for “GGUCACGUCUCAAUCAACUCAACUUCAGGAGUUUCCUCCUGUAUACUCAACAGCUCGCAGUCAAG” was -0.0354; that for “GGUCACGUCUCAAUCAACUCUUUCGAGGGGGGGAAAACCCCUUUACCCUCAAUAUCAACAGCUCGCAGUCAAG” was -0.0586.
The value for “GGUCACGUCUCAAUCAACUCAAUCGCAGGAGUUUACUCCUGGUAACUCAACAGCUCGCAGUCAAG” was 0.111; that for “GGUCACGUCUCAAUCAACUCCUAAGAGGGGGGGAAAACCCCUUUGCCCUCAUUAUCAACAGCUCGCAGUCAAG” was 0.00317.
For the sequence “GGUCACGUCUCAAUCAACUCAUUCCCCAGGGAAAUCCCUGGCAAUUUCAACAGCUCGCAGUCAAG”, the binding signal (log2 fold change) is 0.233.
Take “GGUCACGUCUCAAUCAACUCAAUGGAGGGGGGGAAAACCCCUUUACCCUCAGAAUCAACAGCUCGCAGUCAAG”: the binding signal (log2 fold change) was 0.0924.
As to “GGUCACGUCUCAAUCAACUCAACUCCAGGAGUUUGCUCCUGUAUUUUCAACAGCUCGCAGUCAAG”, the binding signal (log2 fold change) was 0.0723.
On to “GGUCACGUCUCAAUCAACUCAUCUUCAGGAGUUUACUCCUGUAAAUUCAACAGCUCGCAGUCAAG”, for which the binding signal (log2 fold change) was -0.135.
In the case of “GGUCACGUCUCAAUCAACUCUUCUCCCAGGGAAAACCCUGGUUAUCUCAACAGCUCGCAGUCAAG”, the binding signal (log2 fold change) was -0.178.
As to “GGUCACGUCUCAAUCAACUCUUUUCCCAGGGAAAGCCCUGGCAUAUUCAACAGCUCGCAGUCAAG”, the binding signal (log2 fold change) was found to be 0.0307.
The value for “GGUCACGUCUCAAUCAACUCUCACGAGGGGGGGAAAACCCCUUUACCCUCACUUUCAACAGCUCGCAGUCAAG” was 0.0771.
The result for “GGUCACGUCUCAAUCAACUCUCUAGAGGGGGGGAAAACCCCUUUACCCUCAUUCUCAACAGCUCGCAGUCAAG” reads -0.0856; that for “GGUCACGUCUCAAUCAACUCUUUCUCAGGAGUUUUCUCCUGUUAAUUCAACAGCUCGCAGUCAAG”, 0.0523; that for “GGUCACGUCUCAAUCAACUCAAACGAGGGGGGGAAAACCCCUUUGCCCUCAAUUUCAACAGCUCGCAGUCAAG”, -0.234.
The value for “GGUCACGUCUCAAUCAACUCUUCCCCCAGGGAAAGCCCUGGUUAAUUCAACAGCUCGCAGUCAAG” was -0.0159.
As to “GGUCACGUCUCAAUCAACUCAAUCUCAGGAGUUUCCUCCUGCAAAUUCAACAGCUCGCAGUCAAG”, the binding signal (log2 fold change) is -0.0947.
On to “GGUCACGUCUCAAUCAACUCAUUUUCAGGAGUUUGCUCCUGUAAUCUCAACAGCUCGCAGUCAAG”, for which the binding signal (log2 fold change) worked out at 0.0709.
The result for “GGUCACGUCUCAAUCAACUCUUUUCCAGGAGUUUUCUCCUGUAUUCUCAACAGCUCGCAGUCAAG” reads 0.0495.
